Some of these densities may be calculated back from excess volumes.
Assay: xn = mol fraction of the nth substance listed
Conditions: 100 kPa

For `COCCOCCO` + CCCC[n+]1ccn(C)c1.O=S(=O)([O-])C(F)(F)F, the mass density (298.15 K, x2 = 0) was 1015.8 kg/m3, the mass density (298.15 K, x2 = 0.1) was 1066.6 kg/m3 and the mass density (298.15 K, x2 = 0.2056) was 1111.4 kg/m3. The mass density (298.15 K, x2 = 0.3064) was 1147.6 kg/m3, the mass density (298.15 K, x2 = 0.3986) was 1176.1 kg/m3 and the mass density (298.15 K, x2 = 0.4904) was 1201.1 kg/m3. It also gave a mass density (298.15 K, x2 = 0.6945) of 1246.8 kg/m3, a mass density (298.15 K, x2 = 0.7795) of 1262.8 kg/m3 and a mass density (298.15 K, x2 = 0.9015) of 1283.1 kg/m3. For the same compound, the mass density (303.15 K, x2 = 0.1) was 1062.3 kg/m3, the mass density (303.15 K, x2 = 0.2056) was 1107.2 kg/m3 and the mass density (303.15 K, x2 = 0.3064) was 1143.4 kg/m3. It also gave a mass density (303.15 K, x2 = 0.3986) of 1172 kg/m3, a mass density (303.15 K, x2 = 0.5981) of 1222.7 kg/m3 and a mass density (303.15 K, x2 = 0.6945) of 1242.8 kg/m3. It also gave a mass density (303.15 K, x2 = 0.9015) of 1279.1 kg/m3, a mass density (308.15 K, x2 = 0.1) of 1058 kg/m3 and a mass density (308.15 K, x2 = 0.2056) of 1102.9 kg/m3. The mass density (308.15 K, x2 = 0.3064) was 1139.3 kg/m3, the mass density (308.15 K, x2 = 0.3986) was 1167.9 kg/m3 and the mass density (308.15 K, x2 = 0.4904) was 1193 kg/m3. It also gave a mass density (308.15 K, x2 = 0.5981) of 1218.6 kg/m3, a mass density (308.15 K, x2 = 0.6945) of 1238.8 kg/m3 and a mass density (308.15 K, x2 = 0.7795) of 1254.8 kg/m3. The mass density (308.15 K, x2 = 0.9015) was 1275.2 kg/m3, the mass density (313.15 K, x2 = 0) was 1002.5 kg/m3 and the mass density (313.15 K, x2 = 0.1) was 1053.6 kg/m3. For the same compound, the mass density (313.15 K, x2 = 0.2056) was 1098.7 kg/m3, the mass density (313.15 K, x2 = 0.3986) was 1163.9 kg/m3 and the mass density (313.15 K, x2 = 0.4904) was 1188.9 kg/m3. The mass density (313.15 K, x2 = 0.7795) was 1250.8 kg/m3, the mass density (313.15 K, x2 = 0.9015) was 1271.2 kg/m3 and the mass density (318.15 K, x2 = 0.4904) was 1184.9 kg/m3. The mass density (318.15 K, x2 = 0.5981) was 1210.6 kg/m3, the mass density (318.15 K, x2 = 0.6945) was 1230.9 kg/m3 and the mass density (318.15 K, x2 = 0.7795) was 1246.8 kg/m3. It also gave a mass density (318.15 K, x2 = 0.9015) of 1267.3 kg/m3, a mass density (323.15 K, x2 = 0) of 993.5 kg/m3 and a mass density (323.15 K, x2 = 0.1) of 1045 kg/m3. The mass density (323.15 K, x2 = 0.2056) was 1090.3 kg/m3, the mass density (323.15 K, x2 = 0.3064) was 1126.9 kg/m3 and the mass density (323.15 K, x2 = 0.3986) was 1155.7 kg/m3. It also gave a mass density (323.15 K, x2 = 0.4904) of 1180.8 kg/m3, a mass density (323.15 K, x2 = 0.6945) of 1226.9 kg/m3 and a mass density (323.15 K, x2 = 0.9015) of 1263.3 kg/m3.
`CCCC[n+]1ccn(C)c1.O=S(=O)([O-])C(F)(F)F` + COCCOCCO gave a mass density (298.15 K, x1 = 1) of 1297.7 kg/m3, a mass density (308.15 K, x1 = 1) of 1289.8 kg/m3 and a mass density (313.15 K, x1 = 1) of 1285.8 kg/m3.

From a compilation of properties of binary mixtures (doi:10.1016/j.molliq.2017.04.129)
